Source: US20260022143A1, “Cyclic Peptide Inhibitors of IL-23” (JANSSEN PHARMACEUTICA NV, priority 2022, published 2026)
Structures can show the parent of a compound that is named as a salt. Part of at least one peptide drawing is inferred or uncertain, most often the ends. At least one structure is not confirmed: it was looked up by name or label, or the drawing left a doubt. Values belong to the compound of their own block, whether it stands above or below them. Starred links: 1 amine or outer side, 2 acyl side, 3 side chain; linkers in the order of their positions; H or OH if unused. Positions of bridges follow the written chain, without caps; N, C: chain ends. Non-standard residues stand in square brackets, D forms with d. Residues, ends and D or L forms follow the SMILES beside them. Groups on a side chain read outwards from the residue. *: point of attachment. Trp(7-Me) = Cc1cccc2c(C[C@H](N)C(=O)O)c[nH]c12; d(hLys(Me3)) = C[N+](C)(C)CCCCC[C@@H](N)C(=O)O; dLys(Me3) = C[N+](C)(C)CCCC[C@@H](N)C(=O)O; 3Pal(5-Me) = Cc1cncc(C[C@H](N)C(=O)O)c1; X29 = O=C([C@H](CCn1ncnn1)N[*:1])[*:2]; γGlu = O=C(O)[C@H](CCC(=O)[*:2])N[*:1]; 2Nal = N[C@@H](Cc1ccc2ccccc2c1)C(=O)O; AEF = NCCOc1ccc(C[C@H](N)C(=O)O)cc1; X10 = C[N+](C)(C)C[C@H](CC(=O)O)N*; 3Pal = N[C@@H](Cc1cccnc1)C(=O)O; Myristoyl = CCCCCCCCCCCCCC(=O)*; Lys(Me) = CNCCCC[C@H](N)C(=O)O; X7 = COCCOCCOCCOCCOCCOCCC(=O)*; Pen = CC(C)(S)[C@H](N)C(=O)O; Suc = O=C(CCC(=O)[*:2])[*:1]; Thp = NC1(C(=O)O)CCOCC1; X3 = C[N+](C)(C)CCCCC*; AEEA = NCCOCCOCC(=O)O; Tfa = O=C(C(F)(F)F)*; Sar = CNCC(=O)O

Target: T1, IL-23R (Homo sapiens, UniProt Q5VWK5)
T1 construct: host or cells: HEK293
T1 sequence (Q5VWK5 24-629): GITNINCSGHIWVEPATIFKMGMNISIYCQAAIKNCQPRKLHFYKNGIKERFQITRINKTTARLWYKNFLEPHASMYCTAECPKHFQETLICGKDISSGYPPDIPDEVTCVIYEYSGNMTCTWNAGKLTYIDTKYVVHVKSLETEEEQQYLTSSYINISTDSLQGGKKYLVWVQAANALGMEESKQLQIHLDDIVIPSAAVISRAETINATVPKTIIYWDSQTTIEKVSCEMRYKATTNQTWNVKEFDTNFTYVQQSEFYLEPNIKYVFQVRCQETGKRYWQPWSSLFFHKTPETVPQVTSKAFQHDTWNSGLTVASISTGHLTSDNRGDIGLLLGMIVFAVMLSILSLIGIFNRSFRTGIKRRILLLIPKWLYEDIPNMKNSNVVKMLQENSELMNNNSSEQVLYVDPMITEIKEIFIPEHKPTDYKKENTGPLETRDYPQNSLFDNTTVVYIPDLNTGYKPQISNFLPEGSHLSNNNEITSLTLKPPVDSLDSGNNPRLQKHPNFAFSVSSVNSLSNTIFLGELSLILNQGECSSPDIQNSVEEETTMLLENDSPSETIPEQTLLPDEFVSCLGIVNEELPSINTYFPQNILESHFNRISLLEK
Experiment: IL23R Reporter Assay
Type: cell-based
Details: HEK293 cells containing IL-23R, IL-12RP1 and STAT-inducible firefly luciferase reporter; 10 ng/mL IL-23 (EC90); 5 h at 37° C.

Compound: CC(=O)NCCCC[C@@H]1NC(=O)[C@H](Cc2c[nH]c3c(C)cccc23)NC(=O)[C@H]([C@@H](C)O)NC(=O)[C@H](CC(N)=O)NC(=O)[C@@H](NC(=O)[C@@H](CCCCNC(=O)CCC(=O)N[C@@H](CC(=O)O)C[N+](C)(C)C)NC(C)=O)C(C)(C)SSC(C)(C)[C@@H](C(=O)N[C@@H](Cc2ccc(OCCN)cc2)C(=O)N[C@@H](Cc2ccc3ccccc3c2)C(=O)NC2(C(=O)N[C@@H](CCCCNC(C)=O)C(=O)N[C@@H](CC(N)=O)C(=O)N[C@@H](Cc3cccnc3)C(=O)N(C)CC(N)=O)CCOCC2)NC1=O [compound 108] (Ac-[dK]([Suc-X10])[Pen]NT[Trp(7-Me)]K(Ac)[Pen][AEF][2Nal][Thp]K(Ac)N[3Pal][Sar]-NH2; disulfide 2-7)
IC50: 4.6 nM

Compound: CCCCCCCCCCCCCC(=O)N[C@@H](CCC(=O)NCCOCCOCC(=O)NCCOCCOCC(=O)N[C@H](CCCCC[N+](C)(C)C)C(=O)N[C@@H]1C(=O)N[C@@H](CC(=O)N(C)C)C(=O)N[C@@H]([C@@H](C)O)C(=O)N[C@@H](Cc2c[nH]c3c(C)cccc23)C(=O)N[C@@H](CCCCN(C)C(C)=O)C(=O)N[C@H](C(=O)N[C@@H](Cc2ccc(OCCCCC[N+](C)(C)C)cc2)C(=O)N[C@@H](Cc2ccc3ccccc3c2)C(=O)NC2(C(=O)N[C@@H](CCCCN(C)C(C)=O)C(=O)N[C@@H](CC(N)=O)C(=O)N[C@@H](Cc3cccnc3)C(=O)N(C)CC(=O)N(C)C)CCOCC2)C(C)(C)SSC1(C)C)C(=O)O [compound 324, C14gEPEG2PEG2CO-hk(Me)3-Pen(3)-N(N(Me)2)-T-7MeW-K(NMeAc)-Pen(3)-TMAPF-2Nal-THP-K(NMeAc)-N-3Pya-Sar-CON(Me)2] ({Myristoyl-γGlu-AEEA-AEEA}-[d(hLys(Me3))][Pen]D(NMe2)T[Trp(7-Me)][Lys(Me)](Ac)[Pen]Y(X3)[2Nal][Thp][Lys(Me)](Ac)N[3Pal][Sar]-NMe2; disulfide 2-7)
IC50: 8.7 nM

Compound: COCCOCCOCCOCCOCCOCCC(=O)N(C)CCCC[C@H](NC(=O)C1(NC(=O)[C@H](Cc2ccc3ccccc3c2)NC(=O)[C@H](Cc2ccc(OCCN)cc2)NC(=O)[C@H]2NC(=O)[C@H](CCCCNC(C)=O)NC(=O)[C@H](Cc3c[nH]c4c(C)cccc34)NC(=O)[C@H]([C@@H](C)O)NC(=O)[C@H](CC(N)=O)NC(=O)[C@@H](NC(C)=O)C(C)(C)SSC2(C)C)CCOCC1)C(=O)N[C@@H](CC(N)=O)C(=O)N[C@@H](Cc1cccnc1)C(=O)N(C)CC(N)=O [compound 92] (Ac-[Pen]NT[Trp(7-Me)]K(Ac)[Pen][AEF][2Nal][Thp][Lys(Me)](X7)N[3Pal][Sar]-NH2; disulfide 1-6)
IC50: 3.5 nM

Compound: CC(=O)NCCCC[C@@H]1NC(=O)[C@H](Cc2c[nH]c3c(C)cccc23)NC(=O)[C@H]([C@@H](C)O)NC(=O)[C@H](CC(N)=O)NC(=O)[C@@H](NC(=O)C(F)(F)F)C(C)(C)SSC(C)(C)[C@@H](C(=O)N[C@@H](Cc2ccc(OCCN)cc2)C(=O)N[C@@H](Cc2ccc3ccccc3c2)C(=O)NC2(C(=O)N[C@@H](CCn3ncnn3)C(=O)N[C@@H](CC(N)=O)C(=O)N[C@@H](Cc3cccnc3)C(=O)N(C)CC(N)=O)CCOCC2)NC1=O [compound 77] (Tfa-[Pen]NT[Trp(7-Me)]K(Ac)[Pen][AEF][2Nal][Thp][X29]N[3Pal][Sar]-NH2; disulfide 1-6)
IC50: 3.8 nM

Results, then the compound that gave them:

IC50: 180 nM
Compound: CCCCCCCCCCCCCC(=O)N[C@@H](CCC(=O)NCCOCCOCC(=O)NCCOCCOCC(=O)NCCCC[C@@H]1NC(=O)[C@H](Cc2c[nH]c3c(C)cccc23)NC(=O)[C@H]([C@@H](C)O)NC(=O)[C@H](CC(=O)N(C)C)NC(=O)[C@@H](NC(=O)[C@H](COCCOCC[N+](C)(C)C)NC(=O)COCCOCCNC(=O)COCCOCCNC(=O)CC[C@H](NC(=O)CCCCCCCCCCCCC)C(=O)O)C(C)(C)SSC(C)(C)[C@@H](C(=O)N[C@@H](Cc2ccc(OCCOCCOCC[N+](C)(C)C)cc2)C(=O)N[C@@H](Cc2ccc3ccccc3c2)C(=O)NC2(C(=O)N[C@@H](CCCCN(C)C(C)=O)C(=O)N[C@@H](CC(N)=O)C(=O)N[C@@H](Cc3cccnc3)C(=O)N(C)CC(=O)N(C)C)CCOCC2)NC1=O)C(=O)O (relative stereo) [compound 369, C14gEPEG2PEG2CO-APEG2Ser(S*)-Pen(3)-N(N(Me)2)-T-7MeW-K(PEG2PEG2gEC14)-Pen(3)-APEG3F-2Nal-THP-K(NMeAc)-N-3Pya-Sar-CON(Me)2]

IC50: 1.4 nM
Compound: CC(=O)NCCCC[C@@H]1NC(=O)[C@H](Cc2c[nH]c3c(C)cccc23)NC(=O)[C@H]([C@@H](C)O)NC(=O)[C@H](CC(N)=O)NC(=O)[C@@H](NC(=O)[C@@H](CCCC[N+](C)(C)C)NC(C)=O)C(C)(C)SSC(C)(C)[C@@H](C(=O)N[C@@H](Cc2ccc(OCCN)cc2)C(=O)N[C@@H](Cc2ccc3ccccc3c2)C(=O)NC2(C(=O)N[C@@H](CCC(=O)O)C(=O)N[C@@H](CC(N)=O)C(=O)N[C@@H](Cc3cncc(C)c3)C(=O)N(C)CC(N)=O)CCOCC2)NC1=O [compound 474] (Ac-[dLys(Me3)][Pen]NT[Trp(7-Me)]K(Ac)[Pen][AEF][2Nal][Thp]EN[3Pal(5-Me)][Sar]-NH2; disulfide 2-7)
